Experiment: soluble on expression in E. coli; label from the status in PepcDB or PDB records

For “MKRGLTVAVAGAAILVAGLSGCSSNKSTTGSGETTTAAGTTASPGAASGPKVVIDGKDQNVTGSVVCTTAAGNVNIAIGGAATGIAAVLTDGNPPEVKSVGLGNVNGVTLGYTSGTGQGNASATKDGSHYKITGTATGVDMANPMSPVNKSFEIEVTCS”, the “soluble on expression in E. coli” value was “soluble”.
